The results in this text go back to the supplement of paper PMC10037445.

Over roughly 2,900 compounds, “NF-kB SEAP reporter activity, fold change vs agonist alone” has its median near 0.99; the highest 2% begin near 2.6. Some of the results follow.

In assay [1] the test system is RAW-Dual. Nature of the assay: NF-kB SEAP reporter activity, fold change vs agonist alone; higher = enhanced NF-kB activity. Conditions: library stock concentration (final ~1000-fold dilution): 10 mM. In a few lines: (§1)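 Cytotoxic wells were those whose IncuCyte confluency was below 70% of agonist controls in both mask sets. The cells were RAW-Dual macrophages at 50,000 cells/well in DMEM on 384-well plates, dosed with 50 nL of library stock by pin tool, stimulated with a PRR agonist 1 h later, and kept at 37 °C, 5% CO2 for 20 hours. IRF and NF-κB reporter activity, as fold change over agonist-alone wells, came from supernatant read by QuantiLuc luminescence and QuantiBlue absorbance, respectively.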

Assay [2] deals with RAW-Dual. Nature of the assay: NF-kB SEAP reporter activity, fold change vs agonist alone; cytotoxicity flag (confluency mask): cytotoxic (confluency <70% of control); higher = enhanced NF-kB activity. In a few lines:
as §1

Assay [3] concerns RAW-Dual. The assay is described as follows: NF-kB SEAP reporter activity, fold change vs agonist alone; cytotoxicity flag (confluency mask): not cytotoxic; higher = enhanced NF-kB activity. In a few lines: as §1
[4] abbreviates: cytotoxicity flag (confluency mask): not cytotoxic, agonist: Imiquimod (TLR7) […].
Setting [5] is: cytotoxicity flag (confluency mask): not cytotoxic, agonist: MPLA (TLR4) […].
The mark [6] stands for this setting: agonist: ODN 1826 (TLR9) 0.5 ug/mL.
Setting [7] is: agonist: Pam2CSK4 (TLR2/6) 0.1 ug/mL.
The mark [8] stands for this setting: agonist: Pam3CSK4 (TLR2/1) 0.1 ug/mL.

On to `CC12CCC3C(CC=C4CC(O)CCC43C)C1CCC2=O` (centres undefined), for which the “NF-kB SEAP reporter activity” value with RAW-Dual [1] (setting [4]) stood at 1.13; in the assay with RAW-Dual [1] (setting [5]), 1.18.

In the case of `COC(=O)CC(O)(CCC(C)(C)O)C(=O)OC1C(OC)=CC23CCCN2CCc2cc4c(cc2C13)OCO4` (centres undefined), the “NF-kB SEAP reporter activity” value in the assay on RAW-Dual [1] (cytotoxicity flag (confluency mask): cytotoxic (confluency <70% of control), agonist: Imiquimod (TLR7) […]) came out at 0.135; in the assay on RAW-Dual [1] (cytotoxicity flag (confluency mask): cytotoxic (confluency <70% of control), agonist: MPLA (TLR4) […]), 0.255.

In the case of `COC(=O)CC(O)(CCC(C)(C)O)C(=O)OC1C(OC)=CC23CCCN2CCc2cc4c(cc2C13)OCO4` (centres undefined) (library stock concentration (final ~1000-fold dilution): 10 mM), the “NF-kB SEAP reporter activity” value is 0.359 with RAW-Dual [2] (agonist: LPS (TLR4) 0.1 ug/mL), 0.169 in the assay with RAW-Dual [2] (setting [6]), 0.0733 with RAW-Dual [2] (setting [7]) and 0.136 with RAW-Dual [2] (setting [8]).

`N#C/C(=C\c1ccc(O)cc1)C(=O)O`: the “NF-kB SEAP reporter activity” value worked out at 0.863 in the assay with RAW-Dual [1] (setting [4]) and 0.999 in the assay on RAW-Dual [1] (setting [5]).

For the compound `N#C/C(=C\c1ccc(O)cc1)C(=O)O` (library stock concentration (final ~1000-fold dilution): 10 mM), the “NF-kB SEAP reporter activity” value in the assay on RAW-Dual [3] (agonist: LPS (TLR4) 0.1 ug/mL) turned out to be 0.909; in the assay on RAW-Dual [3] (setting [6]), 0.945; in the assay on RAW-Dual [3] (setting [7]), 0.817; in the assay with RAW-Dual [3] (setting [8]) it was 1.13.

Take `CCN(C)C(=O)Oc1cccc(C(C)N(C)C)c1` (centres undefined): the “NF-kB SEAP reporter activity” value with RAW-Dual [1] (setting [5]) was 1.

Turning to `CCN(C)C(=O)Oc1cccc(C(C)N(C)C)c1` (centres undefined) (library stock concentration (final ~1000-fold dilution): 10 mM), the “NF-kB SEAP reporter activity” value in the assay with RAW-Dual [3] (agonist: LPS (TLR4) 0.1 ug/mL) turned out to be 1.01; in the assay with RAW-Dual [3] (setting [6]) it was 0.865; in the assay with RAW-Dual [3] (setting [7]), 1.06; in the assay with RAW-Dual [3] (setting [8]), 1.07.

Take `O=C(CBr)c1ccc(O)cc1` (library stock concentration (final ~1000-fold dilution): 10 mM): the “NF-kB SEAP reporter activity” value in the assay with RAW-Dual [3] (agonist: LPS (TLR4) 0.1 ug/mL) came out at 1.01; in the assay with RAW-Dual [3] (setting [6]), 0.838; in the assay with RAW-Dual [3] (setting [7]), 1.36; in the assay with RAW-Dual [3] (setting [8]) it was 1.15.

With `O=C(CBr)c1ccc(O)cc1`, the “NF-kB SEAP reporter activity” value worked out at 0.973 in the assay on RAW-Dual [1] (setting [4]) and 0.895 with RAW-Dual [1] (setting [5]).

As for `O=C1C=CCC2C3CCCN4CCCC(CN12)C34` (centres undefined), the “NF-kB SEAP reporter activity” value amounted to 0.892 in the assay on RAW-Dual [1] (setting [4]) and 0.902 with RAW-Dual [1] (setting [5]).

For `O=C1C=CCC2C3CCCN4CCCC(CN12)C34` (centres undefined) (library stock concentration (final ~1000-fold dilution): 10 mM), the “NF-kB SEAP reporter activity” value came out at 1.08 in the assay with RAW-Dual [3] (agonist: LPS (TLR4) 0.1 ug/mL), 0.973 in the assay on RAW-Dual [3] (setting [6]), 0.975 with RAW-Dual [3] (setting [7]) and 1.26 in the assay on RAW-Dual [3] (setting [8]).

Take `CC1OC(OC2CC(O)C3(CO)C4C(O)CC5(C)C(C6=CC(=O)OC6)CCC5(O)C4CCC3(O)C2)C(O)C(O)C1O.O.O.O.O.O.O.O.O` (centres undefined): the “NF-kB SEAP reporter activity” value stood at 0.834 in the assay on RAW-Dual [1] (setting [4]) and 1.03 in the assay with RAW-Dual [1] (setting [5]).

Consider `CC1OC(OC2CC(O)C3(CO)C4C(O)CC5(C)C(C6=CC(=O)OC6)CCC5(O)C4CCC3(O)C2)C(O)C(O)C1O.O.O.O.O.O.O.O.O` (centres undefined) (library stock concentration (final ~1000-fold dilution): 10 mM), for which the “NF-kB SEAP reporter activity” value with RAW-Dual [3] (agonist: LPS (TLR4) 0.1 ug/mL) worked out at 1.1; with RAW-Dual [3] (setting [6]), 0.963; with RAW-Dual [3] (setting [7]), 1.06; in the assay on RAW-Dual [3] (setting [8]), 1.12.

Turning to `COc1cc(C(=O)OC2C3C=COC(OC4OC(CO)C(O)C(O)C4O)C3C3(CO)OC23)ccc1O` (centres undefined) (library stock concentration (final ~1000-fold dilution): 10 mM), the “NF-kB SEAP reporter activity” value in the assay on RAW-Dual [3] (agonist: LPS (TLR4) 0.1 ug/mL) worked out at 1.37; in the assay with RAW-Dual [3] (setting [6]) it was 1.13; in the assay on RAW-Dual [3] (setting [7]), 1.13; with RAW-Dual [3] (setting [8]), 1.

As for `COc1cc(C(=O)OC2C3C=COC(OC4OC(CO)C(O)C(O)C4O)C3C3(CO)OC23)ccc1O` (centres undefined), the “NF-kB SEAP reporter activity” value with RAW-Dual [1] (setting [4]) was 0.884; with RAW-Dual [1] (setting [5]), 1.07.

Turning to `CC(C)OC(=O)C(C)NP(=O)(COC(C)Cn1cnc2c(N)ncnc21)Oc1ccccc1` (centres undefined) (library stock concentration (final ~1000-fold dilution): 10 mM), the “NF-kB SEAP reporter activity” value with RAW-Dual [3] (agonist: LPS (TLR4) 0.1 ug/mL) was 1.04; in the assay with RAW-Dual [3] (setting [6]), 0.921; in the assay on RAW-Dual [3] (setting [7]), 1.23; in the assay with RAW-Dual [3] (setting [8]), 1.29.

As to `CC(C)OC(=O)C(C)NP(=O)(COC(C)Cn1cnc2c(N)ncnc21)Oc1ccccc1` (centres undefined), the “NF-kB SEAP reporter activity” value in the assay on RAW-Dual [1] (setting [4]) worked out at 0.979; in the assay on RAW-Dual [1] (setting [5]), 1.1.
